Results: the supplement of paper PMC3656093
± gives the standard deviation of the averaged measurements. In all, about 1,900 compounds were measured (“CD40L-induced NF-kB luciferase activity, plate-corrected, relative to DMSO (0) and IKK inhibitor VII (-100) controls”: median about 0.032, lowest 2% from about -26 on). The list shows a part of the results.

These compounds were tested on BL2-NFkB-Luc (assay: CD40L-induced NF-kB luciferase activity, plate-corrected, relative to DMSO (0) and IKK inhibitor VII (-100) controls (% normalized activity); higher = more NF-kB reporter activity (less inhibition)). Conditions: 9.4 µM; stimulus: tCD40L 64 ng/ml; 4.5 h.
Method: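 BL2 B cells with a stable NF-kB response-element luciferase reporter (BL2-NFkB-Luc), 384-well. Cells were pre-incubated with compound at 9.4 uM for 1 h at 37 C, then stimulated with 64 ng/ml trimerized CD40L for 4.5 h; luciferase was read with Steady-Glo. Signal was normalised per plate in Genedata (median DMSO neutral control = 0, median IKK inhibitor VII at 50 uM = -100) with Assay Median plate-pattern correction; duplicate plates.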

SMILES	CD40L-induced NF-kB luciferase activity
CN1CCC(OC(c2ccccc2)c2ccccc2)CC1	0.501 ± 5.3
Cc1cc(O)c(C(=O)Cc2csc(C)n2)c(O)c1	45.9 ± 3.3
CC12CN3CC(C)(CN(C1)C3c1ccc(Cl)cc1Cl)C2=O (centres undefined)	-2.73 ± 6.4
CCOc1ncnc2c1[nH]c1ccccc12	10.18 ± 0.021
Cc1cccc(Nc2ccccc2C(=O)O)c1C	-0.533 ± 0.74
CCC(C)n1ncn(-c2ccc(N3CCN(c4ccc(OCC5COC(Cn6cncn6)(c6ccc(Cl)cc6Cl)O5)cc4)CC3)cc2)c1=O (centres undefined)	3.03 ± 0.81
COc1ccc(CN2CCCCC2C(=O)Nc2ccc(OC)c(OCC(C)C)c2)cc1OC (centres undefined)	2.17 ± 3.2
CNCCCN1c2ccccc2CCc2ccccc21	6.37 ± 0.25
O=C1CC(c2ccc(F)cc2)Cc2nc(NCC3CCCO3)ncc21 (centres undefined)	3.56 ± 5.9
COc1cc(OC)c(-c2nc3cnccc3n2C)cc1OC	-0.832 ± 2.7
CCCCCCCC(=O)OCC(=O)[C@@]1(O)CC[C@H]2[C@@H]3CCC4=CC(=O)CC[C@]4(C)[C@H]3[C@@H](O)C[C@@]21C	-24.2 ± 1.8
Cc1cc(=O)c2c(O)c(O)ccc2o1	-3.74 ± 1.1
CC1(C)S[C@@H]2[C@H](NC(=O)Cc3ccccc3)C(=O)N2[C@H]1C(=O)O	1.76 ± 1.8
CN(C)[C@@H]1C(=O)C(C(N)=O)C(=O)[C@@]2(O)C(=O)C3C(=O)c4c(O)ccc(Cl)c4[C@@H](O)[C@H]3C[C@@H]12 (some centres undefined)	-0.533 ± 1.3
CCCCC/C=C\C[C@H](O)/C=C/c1cccc(C[C@H](O)CCCCO)n1	1.35 ± 5.5
COc1ccccc1OCC(=O)O	5.79 ± 3.1
Cc1ccc2c(c1)C(O)(CC(=O)/C=C/C=C/c1ccccc1)C(=O)N2 (centres undefined)	2.22 ± 2.3
Cn1c(=O)c2c(ncn2CCO)n(C)c1=O	-3.63 ± 5.5
COc1ccc(-n2cc(CNCc3cccnc3)c(-c3cccc(F)c3)n2)cc1	-4.77 ± 3.8
NC(N)=NN=Cc1ccc(OS(=O)(=O)c2ccccc2)cc1	-3.15 ± 6

SMILES	CD40L-induced NF-kB luciferase activity
Cn1c(=O)[nH]c(=O)c2c1nc(NCc1ccco1)n2CCCc1ccccc1	-14.4 ± 3.9
CC1(C)CC(=O)c2cnc(NC(=O)C3CCCC3)nc2C1	10.5 ± 8.1
COc1ccc2c(c1)[nH]c1c(=O)n(Cc3ccccn3)cnc12	-0.0285 ± 6.5
COc1cccc(CN2C(=O)N(C(C)C)C(N(O)C(=O)NC(C)C)C2(C)C)c1OC (centres undefined)	0.34 ± 1.2
Cc1c(NC(=O)c2cccs2)cccc1[N+](=O)[O-]	3.34 ± 2.9
C#CCN(C)CCCOc1ccc(Cl)cc1Cl	18.6 ± 10
COc1ccc(C2C3=C(CC(C)(C)CC3=O)N(C)C3=C2C(=O)CC(C)(C)C3)cc1	-1.84 ± 3.1
CC1(C)C2CCC1(C(=O)O)c1nc3ccccc3nc12 (centres undefined)	-6.56 ± 6.1
Cc1cnc(C(=O)NCCc2ccc(S(=O)(=O)NC(=O)NC3CCCCC3)cc2)cn1	-11.9 ± 14
CCc1cc2c(=O)c(-c3nc(C)cs3)c(CCCC(=O)O)oc2cc1O	4.01 ± 2.6
CC(OC(=O)c1cc(=O)[nH]c2ccccc12)C(=O)c1ccccc1 (centres undefined)	2.72 ± 3.4
O=C(/C=C/c1ccccc1)/C=C/c1ccccc1	14 ± 3.4
Cc1ccccc1C(=O)Nc1ccccc1C(=O)NCC(C)C	-13.8 ± 7.1
CCCCNc1ccc(C(=O)OCCN(C)C)cc1	2.74 ± 6.3
COc1ccc2[nH]c(=O)c(CN(C(=O)c3ccco3)C(C)C)cc2c1	0.241 ± 0.71
COc1ccccc1C(CCN(Cc1ccccc1)C(C)=O)c1ccco1 (centres undefined)	0.884 ± 3.6
O=C(CCSc1ccccc1)N1CCCC1	-1.91 ± 3.9
CCSC(SCC)[C@H](O)[C@@H](O)[C@H](O)[C@H](O)CO	1.44 ± 1.4
Cc1ccc(NCCC(=O)c2ccccc2)cc1Cl	0.848 ± 1.2
Cc1ccccc1C(OCCN(C)C)c1ccccc1 (centres undefined)	1.17 ± 2.3

SMILES	CD40L-induced NF-kB luciferase activity
COc1cc(/C=C(\C#N)C(=O)N2CCc3ccccc32)ccc1O	-3.46 ± 17
NCCCC(N)(C(=O)O)C(F)F (centres undefined)	-0.116 ± 2.1
CSc1ccc(C=NN2CCN(Cc3ccc(C)cc3C)CC2)cc1	-1.75 ± 1.9
COc1c2ccoc2nc2c(OC)cccc12	35 ± 3.3
CNc1c2c(nn1C)CCCC2	4.52 ± 6
CC(C)CN1CC(C(=O)O)CC1=O (centres undefined)	0.831 ± 1.9
COc1ccc(-c2nnc(-c3cc4c(ccc5ccccc54)oc3=O)o2)cc1	-0.84 ± 2.2
COC(=O)C1=C(C)NC(C)=C(C(=O)OCCN(C)Cc2ccccc2)C1c1cccc([N+](=O)[O-])c1 (centres undefined)	0.32 ± 4.7
CC(=O)SC1CC2=CC(=O)CCC2(C)C2CCC3(C)C(CCC34CCC(=O)O4)C12 (centres undefined)	-3.8 ± 4
c1ccc(Nc2cccc3c(Nc4ccccc4)cccc23)cc1	6.91 ± 1.2
CC(C)NC(=O)c1ccc(C(C)C)cc1	-3.79 ± 5.4
CCc1oc2ccccc2c1C(=O)c1cc(Br)c(O)c(Br)c1	1.29 ± 0.75
COc1ccc(Cc2nc(-c3ccc(Br)cc3)no2)cc1	30.1 ± 0.52
CC(C)(C)NCC(O)c1cc(O)cc(O)c1 (centres undefined)	-3.87 ± 3.1
C#C[C@]1(O)CC[C@H]2[C@@H]3CCC4=C(CCC(=O)C4)[C@H]3CC[C@@]21C	-9.83 ± 0.4
C=C(C)C(=O)Nc1ccc(NC(C)C)cc1	5.24 ± 6.5
O=C1[C@@H]2CSCN2C(=O)CN1Cc1ccc(F)cc1	-0.473 ± 5.9
COc1cc(C(=O)Nc2ccc(N(C)C)cc2)c([N+](=O)[O-])cc1OC	1.16 ± 2
COc1ccc(-c2nc(NC(C)=O)sc2-c2ccc(OC)cc2)cc1	-0.95 ± 2.8
